No constants are given. Whether binding was seen depends on the method and setting. For some assays here: In cells and extracts the contact can be indirect. Some binding calls cover weakened binding; strength is not graded here. Tags and fused reporters may be left off the sequences shown.
T1: RCAR9-YFP^N (Arabidopsis thaliana) (UniProt Q8S8E3)
T1 sequence: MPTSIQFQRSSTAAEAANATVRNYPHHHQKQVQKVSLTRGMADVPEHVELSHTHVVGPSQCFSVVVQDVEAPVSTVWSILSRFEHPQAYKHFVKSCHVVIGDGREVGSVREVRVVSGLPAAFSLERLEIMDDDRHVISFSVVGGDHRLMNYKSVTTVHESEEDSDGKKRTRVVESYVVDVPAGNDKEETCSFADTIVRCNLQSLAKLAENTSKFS

Amino acid sequences for entries named in this document (tags omitted).
UniProt Q8VZS8: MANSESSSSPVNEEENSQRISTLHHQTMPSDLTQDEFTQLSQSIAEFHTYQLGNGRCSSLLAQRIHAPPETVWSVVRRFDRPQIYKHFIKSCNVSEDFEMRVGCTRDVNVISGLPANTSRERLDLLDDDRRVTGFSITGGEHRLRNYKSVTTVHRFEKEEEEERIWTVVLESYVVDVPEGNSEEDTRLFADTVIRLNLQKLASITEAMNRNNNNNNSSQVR

T2: cYFP-RCAR13 (Arabidopsis thaliana) (UniProt Q9SSM7)
T2 sequence: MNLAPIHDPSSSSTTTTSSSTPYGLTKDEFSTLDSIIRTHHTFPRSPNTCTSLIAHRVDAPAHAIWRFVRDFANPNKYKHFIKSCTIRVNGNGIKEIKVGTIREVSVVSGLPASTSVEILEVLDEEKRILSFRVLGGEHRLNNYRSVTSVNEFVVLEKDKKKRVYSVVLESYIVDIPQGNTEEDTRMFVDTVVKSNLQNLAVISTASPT

T3: cYFP-RCAR14 (Arabidopsis thaliana) (UniProt O80992)
T3 sequence: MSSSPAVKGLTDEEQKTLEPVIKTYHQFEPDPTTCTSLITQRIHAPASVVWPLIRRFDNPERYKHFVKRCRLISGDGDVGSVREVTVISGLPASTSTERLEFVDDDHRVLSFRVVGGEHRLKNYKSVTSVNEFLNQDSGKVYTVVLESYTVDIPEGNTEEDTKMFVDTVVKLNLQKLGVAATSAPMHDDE

T4: 3*flag-RCAR13 (Arabidopsis thaliana) (UniProt Q9SSM7)
T4 sequence: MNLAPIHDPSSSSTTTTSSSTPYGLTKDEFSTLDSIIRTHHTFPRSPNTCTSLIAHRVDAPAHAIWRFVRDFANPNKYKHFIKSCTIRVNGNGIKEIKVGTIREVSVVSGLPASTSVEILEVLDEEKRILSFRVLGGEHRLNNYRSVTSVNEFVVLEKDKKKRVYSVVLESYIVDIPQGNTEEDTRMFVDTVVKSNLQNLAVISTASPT

T5: GST-RCAR13 (Arabidopsis thaliana) (UniProt Q9SSM7)
T5 sequence: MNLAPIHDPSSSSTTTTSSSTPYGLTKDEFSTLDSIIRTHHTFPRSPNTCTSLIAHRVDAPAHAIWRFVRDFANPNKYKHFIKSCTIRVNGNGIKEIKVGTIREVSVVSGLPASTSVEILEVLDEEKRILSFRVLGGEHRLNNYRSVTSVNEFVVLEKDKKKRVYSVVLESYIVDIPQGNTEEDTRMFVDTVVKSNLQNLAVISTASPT

T6: GST-RCAR14 (Arabidopsis thaliana) (UniProt O80992)
T6 sequence: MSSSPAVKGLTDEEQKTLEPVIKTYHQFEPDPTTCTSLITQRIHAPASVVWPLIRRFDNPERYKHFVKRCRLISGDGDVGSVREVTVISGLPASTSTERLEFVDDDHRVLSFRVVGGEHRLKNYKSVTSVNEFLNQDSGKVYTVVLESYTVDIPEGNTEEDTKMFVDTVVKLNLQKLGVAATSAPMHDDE


Tests used:
[1] = target: T1, RCAR9-YFP^N (Arabidopsis thaliana); experiment: split reporter; BiFC: nYFP and cYFP fusions co-expressed in N. benthamiana leaf cells by Agrobacterium infiltration; YFP imaged by confocal microscopy after 2 d
[2] = target: cYFP-RCAR12 (Arabidopsis thaliana) (UniProt Q8VZS8); experiment: as above
[3] = target: T2, cYFP-RCAR13 (Arabidopsis thaliana); experiment: as above
[4] = target: T3, cYFP-RCAR14 (Arabidopsis thaliana); experiment: as above
[5] = target: 3*flag-RCAR12 (Arabidopsis thaliana) (UniProt Q8VZS8); experiment: co-IP; 3*HA-CARK1 forms and 3*Flag-RCARs transiently expressed in N. benthamiana; crude extracts in IP buffer (50 mM HEPES pH 7.5, 150 mM NaCl, 1% Triton X-100); Anti-Flag M2 magnetic beads; anti-HA blot
[6] = target: T4, 3*flag-RCAR13 (Arabidopsis thaliana); experiment: as above
[7] = target: GST-RCAR12 (Arabidopsis thaliana) (UniProt Q8VZS8); experiment: pull-down; GST-RCARs bound to glutathione Sepharose 4B resin; His-CARK1-KD or His-CARK1-KD^N204A co-incubated 1 h at room temperature; 50 ug of each protein; SDS-PAGE and anti-His blot; both purified
[8] = target: T5, GST-RCAR13 (Arabidopsis thaliana); experiment: as above
[9] = target: T6, GST-RCAR14 (Arabidopsis thaliana); experiment: as above

| binding [2] | binding [3] | binding [4] | binding [5] | binding [6] | Binder | other results |
| --- | --- | --- | --- | --- | --- | --- |
| binds | binds | binds |  |  | CARK1-nYFP (full-length CARK1 fused to a YFP fragment) (enzyme, UniProt Q9LUT0 1-364) MGCFGCCGGGEDFRRVSETGPKPVHNTGGYNGGHHQRADPPKNLPVIQMQPISVAAIPADELRDITDNYGSKSLIGEGSYGRVFYGILKSGKAAAIKKLDSSKQPDQEFLAQVSMVSRLRQENVVALLGYCVDGPLRVLAYEYAPNGSLHDILHGRKGVKGAQPGPVLSWHQRVKIAVGAARGLEYLHEKANPHVIHRDIKSSNVLLFDDDVAKIADFDLSNQAPDMAARLHSTRVLGTFGYHAPEYAMTGTLSTKSDVYSFGVVLLELLTGRKPVDHTLPRGQQSVVTWATPKLSEDKVKQCVDARLNGEYPPKAVAKLAAVAALCVQYEADFRPNMSIVVKALQPLLNPPRSAPQTPHRNPY | binding [1]: no binding |
|  |  |  | no binding | no binding | 3*HA-CARK1^N204A (enzyme, UniProt Q9LUT0 1-364) MGCFGCCGGGEDFRRVSETGPKPVHNTGGYNGGHHQRADPPKNLPVIQMQPISVAAIPADELRDITDNYGSKSLIGEGSYGRVFYGILKSGKAAAIKKLDSSKQPDQEFLAQVSMVSRLRQENVVALLGYCVDGPLRVLAYEYAPNGSLHDILHGRKGVKGAQPGPVLSWHQRVKIAVGAARGLEYLHEKANPHVIHRDIKSSAVLLFDDDVAKIADFDLSNQAPDMAARLHSTRVLGTFGYHAPEYAMTGTLSTKSDVYSFGVVLLELLTGRKPVDHTLPRGQQSVVTWATPKLSEDKVKQCVDARLNGEYPPKAVAKLAAVAALCVQYEADFRPNMSIVVKALQPLLNPPRSAPQTPHRNPY |  |

More lines, now with the values behind:

| Binder | binding [2] | binding [3] | binding [4] | binding [5] | binding [6] | other results |
| --- | --- | --- | --- | --- | --- | --- |
| 3*HA-CARK1 (enzyme, UniProt Q9LUT0 1-364) MGCFGCCGGGEDFRRVSETGPKPVHNTGGYNGGHHQRADPPKNLPVIQMQPISVAAIPADELRDITDNYGSKSLIGEGSYGRVFYGILKSGKAAAIKKLDSSKQPDQEFLAQVSMVSRLRQENVVALLGYCVDGPLRVLAYEYAPNGSLHDILHGRKGVKGAQPGPVLSWHQRVKIAVGAARGLEYLHEKANPHVIHRDIKSSNVLLFDDDVAKIADFDLSNQAPDMAARLHSTRVLGTFGYHAPEYAMTGTLSTKSDVYSFGVVLLELLTGRKPVDHTLPRGQQSVVTWATPKLSEDKVKQCVDARLNGEYPPKAVAKLAAVAALCVQYEADFRPNMSIVVKALQPLLNPPRSAPQTPHRNPY |  |  |  | binds | binds |  |
| His-CARK1-KD^N204A (domain or fragment, UniProt Q9LUT0 50-353) QPISVAAIPADELRDITDNYGSKSLIGEGSYGRVFYGILKSGKAAAIKKLDSSKQPDQEFLAQVSMVSRLRQENVVALLGYCVDGPLRVLAYEYAPNGSLHDILHGRKGVKGAQPGPVLSWHQRVKIAVGAARGLEYLHEKANPHVIHRDIKSSAVLLFDDDVAKIADFDLSNQAPDMAARLHSTRVLGTFGYHAPEYAMTGTLSTKSDVYSFGVVLLELLTGRKPVDHTLPRGQQSVVTWATPKLSEDKVKQCVDARLNGEYPPKAVAKLAAVAALCVQYEADFRPNMSIVVKALQPLLNPPR |  |  |  |  |  | binding [7]: no binding (tested: 50 ug of each protein); binding [8]: no binding (tested: 50 ug of each protein); binding [9]: no binding (tested: 50 ug of each protein) |
| CARK1^N204A-nYFP (full-length mutant CARK1 fused to a YFP fragment) (enzyme, UniProt Q9LUT0 1-364) MGCFGCCGGGEDFRRVSETGPKPVHNTGGYNGGHHQRADPPKNLPVIQMQPISVAAIPADELRDITDNYGSKSLIGEGSYGRVFYGILKSGKAAAIKKLDSSKQPDQEFLAQVSMVSRLRQENVVALLGYCVDGPLRVLAYEYAPNGSLHDILHGRKGVKGAQPGPVLSWHQRVKIAVGAARGLEYLHEKANPHVIHRDIKSSAVLLFDDDVAKIADFDLSNQAPDMAARLHSTRVLGTFGYHAPEYAMTGTLSTKSDVYSFGVVLLELLTGRKPVDHTLPRGQQSVVTWATPKLSEDKVKQCVDARLNGEYPPKAVAKLAAVAALCVQYEADFRPNMSIVVKALQPLLNPPRSAPQTPHRNPY | no binding | no binding | no binding |  |  |  |
